The list shows a part of the results. At the low end of the ranking, values are background and their order means little. The protein was read in a cell extract, so binding may be indirect.
target: T1, HNF4alpha8 (COS-7 nuclear extract) (UniProt P41235-5); assay: protein-binding microarray; conditions: COS-7 nuclear extract on double-stranded Agilent 4x180k PBM; binding buffer, salt, pH and temperature not given; high values mean tight binding; double strand, one strand shown; sequences stand for … in …GCCTAGGGAGATTAGAGTATCGGTCGA
T1 sequence: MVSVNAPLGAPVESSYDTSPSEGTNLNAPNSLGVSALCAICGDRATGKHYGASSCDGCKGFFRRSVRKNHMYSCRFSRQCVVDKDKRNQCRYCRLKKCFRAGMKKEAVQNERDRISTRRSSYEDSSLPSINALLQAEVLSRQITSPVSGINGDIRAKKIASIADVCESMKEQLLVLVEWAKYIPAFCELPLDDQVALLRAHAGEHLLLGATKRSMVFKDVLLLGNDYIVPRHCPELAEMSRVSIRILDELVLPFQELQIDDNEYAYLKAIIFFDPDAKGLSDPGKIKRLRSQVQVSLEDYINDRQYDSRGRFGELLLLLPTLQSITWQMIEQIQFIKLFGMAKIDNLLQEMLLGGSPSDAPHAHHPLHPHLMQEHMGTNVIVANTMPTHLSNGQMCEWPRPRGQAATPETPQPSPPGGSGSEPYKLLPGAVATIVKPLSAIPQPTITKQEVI

Row | Sequence | binding signal (log2 normalized intensity)
1 | CAAAATTTTAATTAGAACTGTAATTGAGTA | 0.247
2 | GTTCCGACCTTAGTACTCTGCCATGTGCTA | 1.89
3 | CAGGAAGTTCCCACAGTCCTTAAGATCCAA | -1.41
4 | CCTTATCATCACATGTGCAAGGGCAGCTCC | 0.8
5 | AGGCTGGGTGATAAGAACACAAAAGCCTCT | -1.36
6 | GTTAAGTAACGTGTCAGAGGTCACTCAGCA | 3.07
7 | TGTGAGTCCAGTTGAATGATGGCGAGTGTG | 1.07
8 | GTTTAGTTGGAGAGACAGGTAAATCAGTAC | 0.128
9 | ATGCCAGGAATGCTGAGGAGGGCCTGGGGG | -1.22
10 | ACCTCTCCCACCTGAATTATTGTATAGCTT | 0.233
11 | TCCCATCCCACTAGGTGGCGCTGTTGACCT | 4.39
12 | CTGGCCTCTGAGATTCGGTGAGGGATTGTT | -0.0778
13 | GGGACAAAGGTCACAGGAAAGGGACCAAAG | 4.27
14 | CATCTCCAGTTCCAAAGTCCAGGTGCTTTC | 5.22
15 | ACCTCCTGACTAAAGTTCATTGCTTTGAGC | 2.32
16 | ACCAGGCAAAAATGCCAGGCATTTGCGATA | -1.33
17 | GGCTGTGGAGGGCAGTGGATGGGGGCGTTC | 0.786
18 | CTGGGAGATAAGATAGCACCAGCCCATTAA | -1.39
19 | GGGCTCAAAGGTTACCACCCAGGAGTCTGT | 3.78
20 | TTTGGCTCAGGGCCTCTCCTTCATCTTCAA | -0.738
21 | CTAGGTGGCGCTGTTGACCTTGAAATGCCA | 2.59
22 | GGCTGAGCGTGAACACCGGCCCCCTCCCCC | 5.76
23 | CCACCTCCTCTGAAGCTAGGACAAGGCTCA | -1.36
24 | GAGCAATTATGCACCCGTGGTTGATCAAAG | 0.509
25 | TGAGCTGAGTTCCACAGATAAGGAGGAGAC | -1.36

Row | Sequence | binding signal (log2 normalized intensity)
26 | AGGTTATCTCGGGGCTGGCATGTCTCTGGT | 0.922
27 | TTTTTGACCTGTATCTTGTGGTGACCTCTT | 5.13
28 | GGTGGACATGGTCCAGTCACAGCAAAAGTA | 0.211
29 | TTAGGCAAGCAAACTGCAAATACAGGTGAA | -1.25
30 | AGCCTCTTGAGTAGCTGGGACTACAGGCAG | -1.27
31 | GAAGACAGTTCAAATCCCTTCGGATGACTC | -1.25
32 | AAGCCGAACGCTGGGGCAAAGGTTTCCTAA | 1.65
33 | TGTTTTACCAGGAAGGGCTTTATGACCAGT | 1.01
34 | AGAGAGATAGCAAAATCAATAAATCACACG | -1.2
35 | TGTCCTTTAACCTCCCTGCAGGTCTCTAAA | 0.893
36 | GATTCCTGCTGAGAGAGCAGGTTGAGTATC | 0.114
37 | TACCTGATGAAGCAATAGGAATCACACAAC | -1.33
38 | ACAGGTGGGGGTAAACATAGCAGAAGACCC | -1.25
39 | CAAGGAAATCTGGGAAATGTAGCTTTTAAA | -1.27
40 | CTCTCTCTCTCTCACACACACACACACACA | 1.83
41 | GGATGGGGTGCAAACTCACCTGGAGAAGCA | -1.27
42 | TCAACCAGGTTCTCTTTACTGAACGCTGCG | -1.32
43 | AGAACCTGGAACCTAGAGGCCTTTCTCTCT | -1.25
44 | GCAGGGAGGATATCCCTCCGCCTCCCTCCC | 2.76
45 | GGCAGGACTCTGTCCTGGGCACTGTCCTAG | 0.632
46 | TGGGTGGGGGAAGTGTGGTCAAGGGTCAGT | 4.76
47 | GGGACTAGAACTCAGTGTGAACTCAATGCT | -1.05
48 | TTTGTGTGGTGAGGAAAAGGAGGAGTTTGA | 0.987
49 | GAGTTTGGCCCCAGTTCCCATGGACTGGTT | 1.18
50 | ACTTTCTGACTGGCCTGGGAACCCCAAGTT | 0.551

Row | Sequence | binding signal (log2 normalized intensity)
51 | TAGGATTAAACACGTTTTATTAGGGGTCAG | 4.41
52 | CACTCCCTGGAGCAAACTTACTCTGGGGGA | -1.35
53 | GCCGTTCAGGGCCACGGGAAAACCTGACTG | -1.36
54 | AACACAGAACTATCAAACATTTTTGCAACA | -1.29
55 | CCAGCCACGCCCTCTAACCCAGGTTCCCGT | -1.13
56 | ACGCCGGCCAATCCGGCTGGCAGCCGATTG | -1.34
57 | CTGACCTTTGCCCCCAGCCTCTCACAGTAG | 7.53
58 | TCCTCTGGAGGCCAAAAGTAGGGAGGAGGG | -1.37
59 | CAAAGGACAAATCTCACTGATAGTCTCCTA | -1.28
60 | TAGATCAGCTTTCAACACTCTGGATTCCTC | -1.36
61 | CCTGACCCCCTCCTCACCCCACTTTGGTTC | 4.37
62 | GACAAACAGACTTCACACTAGAAGACTCAT | -1.32
63 | GCTACAGAGCTCAGATTTCAAGGTGAGCAG | -0.986
64 | AATGGAATACTTGCCTAAGGTCAATGTCCT | 3.89
65 | TTTTTGTTCCACTGGTAACTAGGTTAATGT | 1.73
66 | ACAGCCTTTTCTTATCAGGCTCATTCTAAC | -0.846
67 | TAGAACGCTGACTCCGGGGAGCAGGCAGAG | -1.28
68 | GGAATGCAGTAGTGCGATGATCATGGCTCA | -1.08
69 | TCAAGCCTTTGACTCGAATGCGAACCTGTC | 0.675
70 | CTAGAGCCAAGGAAGAGAAGACCAAACAAC | -1.24
71 | TTTGATCTCTTATCACCCTGAACAGTGGCT | -0.15
72 | CATGTAGTCACATACCTATGCAAACAGCGC | -1.23
73 | AGGACAGCCAGGCAGTCGGGAAATTCCAGC | -1.15
74 | GAGACCTGTTCTGTTCCCTGGACTCAGCTC | 2
75 | TTCTTGAGCTACCGCCTGAACCTTGGATCT | 4.48

Row | Sequence | binding signal (log2 normalized intensity)
76 | GCGGGCCGGGAGGGGGACGCTTTCTGGCGC | -1.52
77 | TAAATAAAGTGGTAGCCCACAATCAGTCTG | -1.28
78 | CCACTGTTCTCTCTAGAGAGAACAGATCTT | 0.526
79 | TTAGACATGTTTACTTTTGCAAGGTTTGTT | 1.34
80 | TCCTTCAAAGATTGTGAGACAAGAGAAGAG | -1.36
81 | AAATCAGAACAGTCTGTGACTTGATCTTTG | 3.2
82 | TGCAGCAAAACTTTAGGACTTTGAACCTTG | 9.2
83 | TCGGGGCCTGGTCTGCACTCCAGGAAAGAC | -0.598
84 | CTGGCAAATGAAATGTAATCAGCAAGTTTT | -0.901
85 | AAGGCTGACCACGGGGGCCGCTCTCCCTCC | -1.32
86 | CAGGACGTGAAGCAACTAGAACTCTCAGAC | -1.35
87 | CCACTGGTTTGCACACACCAAAGCCCAAGG | -1.33
88 | CCCTTGGTGTTTAAACACATTTTTTTTTTT | 1.5
89 | TGGGTCGTTGGTGCTCCCCCACCCTGTGTC | 4.44
90 | CCATGCAAGTTCCCACAGAGCCCACCATGT | -1.39
91 | GTCTGAGTGCTCATGATGGGAAGCCTCAGG | -1.35
92 | ATTAAACATCTTGCCCACATTCACACAATC | 0.459
93 | AAAGACGCGGAGCGGGGGACCGAGAGCCGC | -1.2
94 | ACAAAACAGCGTACTGTGCTAAAGAGTGAT | -1.2
95 | AACCCTGTTCTTGTAGGATTTCCAAGTGGA | 1.66
96 | GGTATTACAAAGCAATCTACTTTTCTTTTG | 0.285
97 | GTAAACACAGACTTTGGAATCACAATGATA | 2.33
98 | ATGTTATCATTAGGGAAAATAGTGACCCTG | 3.82
99 | GGTATTGAGGGAGCAAAGGGCATGGAGGAT | 3.18
100 | TCCATTTCTGCCCCTTGCTCCTGCTTGCTG | 2.24

Row | Sequence | binding signal (log2 normalized intensity)
101 | GGTAACATCAAAGCCAGGACTTCTAGAGTG | -1.41
102 | GGCATATCCAACCTTCTCCCACTTCCCTGC | 0.153
103 | CCCATTCCTTAGTGCATGGGAACTTCTCAC | 0.777
104 | TTCTTGCTGCAGCTGGGCTATACAATTCCA | -1.25
105 | AAAGGTCTTTGGTGGTGGGGGGTAGCCACT | -0.151
106 | CTCAGGCCGACCCCTGCCTGGACTGTCCTA | 2.99
107 | GCCTTGTGTACTGAGCAGGGTCCAACCCAC | 3.56
108 | CCGTGGTGTATGATGACGCCACGCCGCTCT | -1.28
109 | GGCTTCCCAACTCCATTATCTCTGTAAAAG | 0.272
110 | GGATGGACTTTAATCTCCAAGTAACTGAAA | 4.03
111 | CTCTGTTTGATCAGCTGGTCCTTCAAGTGT | 1.86
112 | GCATAACCAAACAGAGAGAAAGCAGTGACC | 0.322
113 | TTGATGGGCAGCGCGGCGCGCTGGGAAGGC | -1.19
114 | GTGCCCTTACATTTTGCTCTTTGTACCGTT | 5.48
115 | CTGTGAGTCAGGTACCTGCTTCTGCCCCAG | 1.7
116 | TTGCATATGCCACAGGGCAAGACACCAAAG | -1.23
117 | CCTCTGAAAACTTTTACTGGGAAGAGATAA | -0.817
118 | TGGCAGATTAGAGACCTCTAGACTCCAGCT | -0.437
119 | AGAAAGAAACAGGGGATGTTGATTCCCCTG | -1.24
120 | ATTTACTGAATGAATGTCCAACTTGCCCTG | 2.48
121 | CTCAACCTCCCCCTGGGGACAGGTGTTAAT | 2.27
122 | GATAACAGCACATTCCTTAACATGGTTTGC | 0.422
123 | AGAGCACATTCTTCCATATAACCCTTGAAC | 4.39
124 | GAGTTTAGGGACCGCAAATAAAAGAGGGCC | -1.34
125 | GCACAGCAGATGCTGGGCAAAGGGCAAGGC | 4.05

Row | Sequence | binding signal (log2 normalized intensity)
126 | TCCTCCTCCTGTTTGTATTCCTTGTCCTTG | 2.11
127 | TTGTCCTATGACTCTCTCAACACTGGCTTC | -0.82
128 | ATTTCACCTTTGGTCTTTGGTGAAACTCCA | 3.44
129 | GGGTTTGTTTTTTGCCCTTTGTACCCACAC | 8.41
130 | TAACATCTTTTCTCAGTTAACTGGAATGAA | 1.44
131 | TAGCCTCTGGGCTGGCTTTAGCTCAGCGGT | -1.38
132 | ATCAAAGGCTTCTAGAAGAGGTTAAAGACC | 1.58
133 | ATGCACTCATAACTAGGGTTCCAAGACCAA | -1.2
134 | GATTCCTCTTGAATTGGAAGGCAAAGTTCA | 3.78
135 | TGCCTGCCGGCTCTGAAGAGAACGGCTGAT | -1.2
136 | TATTTACATACCTTAGGCTGTGCATATTGG | 0.994
137 | TTCAAGCCTGAACAAACATGAGGGACTGGG | -1.16
138 | GTGTTCCTTTTTCTGTTCAATGGTGCTTTT | 2.08
139 | TCCAGCTGTTGGTGACTGACCCTGATCCCT | 3.55
140 | GGTGAGCCATTGGCTGGGGTGTCGGCGAGT | -1.14
141 | TTAAGTTTTCGAGGAGTCAAAAGGTGTATG | 1.24
142 | ACCTAGAGCTTCAGACGCCCTATGGCGTCC | -1.31
143 | TGGGGGGTAGCCACTGACAGGAGGTATGCC | -1.35
144 | AGGGTGGAAGTCCAACCTTTGCTCACTTGG | 4.28
145 | GACAAATTCCTGGGAACTGCGGACATAGCT | -1.4
